Reference: PubChem BioAssay (NCATS)
Inconclusive results, whose numbers are uncertain, are shown with a selection of clear calls. A potency beside an inconclusive call is a rough fit, not a confirmed value. The source made the active and inactive calls. Calls come from the whole dose curve; as a rule, active = well fitted inhibition curve with a large enough effect; inconclusive = small, poorly fitted or top-dose-only effect; inactive = no such curve, though single readings can be large or run the other way.

Target: Cytochrome P450 2D6 (Homo sapiens) (UniProt P10635)
Experiment: qHTS Assay for Inhibitors and Substrates of Cytochrome P450 2D6 (AID 891);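 note: luciferin methyl ether substrate demethylated by CYP2D6 with NADPH regeneration; nearly all actives have a fitted effect of over 60% in size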; for activity change, negative = inhibition: top concentration of the series differs between compounds
Conditions: recombinant CYP2D6, luciferin-ME EGE luminescence; series mostly up to 11.4 µM; activity change, negative = inhibition: at the top concentration
Summary of the method: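 Luminescent read-out of luciferin formed by 5 nM human CYP2D6 demethylating 30 uM Luciferin-ME EGE (Km level) over 60 min at room temperature after NADPH regeneration addition. Data normalized to full inhibition by 1.43 uM quinidine.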
% is set by controls: 0 for no effect and ±100 for the full control effect; potency is the fitted concentration of half-maximal effect; tags give direction and shape of the fitted curve.

Chain of UniProt P10635 (P10635 whole entry, looked up): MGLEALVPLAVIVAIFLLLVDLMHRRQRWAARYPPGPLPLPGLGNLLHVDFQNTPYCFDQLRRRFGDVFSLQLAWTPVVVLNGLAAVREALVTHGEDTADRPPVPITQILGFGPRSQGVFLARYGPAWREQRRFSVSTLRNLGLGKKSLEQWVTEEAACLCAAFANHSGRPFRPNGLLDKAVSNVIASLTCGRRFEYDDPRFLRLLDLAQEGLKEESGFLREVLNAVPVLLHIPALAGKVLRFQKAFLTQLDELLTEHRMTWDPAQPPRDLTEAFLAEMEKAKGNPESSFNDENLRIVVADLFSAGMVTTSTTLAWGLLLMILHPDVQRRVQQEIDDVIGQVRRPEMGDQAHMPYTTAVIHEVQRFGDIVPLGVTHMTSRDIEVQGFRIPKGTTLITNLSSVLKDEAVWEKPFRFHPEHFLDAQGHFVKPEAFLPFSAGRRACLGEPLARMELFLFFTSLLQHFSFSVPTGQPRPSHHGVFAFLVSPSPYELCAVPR

Potency, inconclusive:
O=C1c2ccccc2C(=O)N1CCCSc1ccccc1 3.16 µM [inhibitor, partial curve], C[C@@H](N)[C@@H](C)Cc1ccccc1 3.98 µM [inhibitor, partial curve], CCCNC(=O)OC[C@@H]1O[C@H](CCO/N=C(\C)CCN2CCCCc3nc(C)c(C)cc32)C=C[C@@H]1Oc1ccc(OC)cc1 2.51 µM [inhibitor, single point], COc1ccc(-c2ccc3c(n2)CCCN3C[C@H](O)CN2CCCc3nc(C)c(C)cc32)cc1 3.16 µM [inhibitor, single point], Cc1cc(C(=O)N[C@@H](c2ccccc2)[C@]2(C)C[C@H]2[C@@H](C)C(=O)Nc2ccc3ccccc3c2)n(C)n1 3.16 µM [inhibitor, partial curve], Cc1cc2c(nc1C)CCCCN2C[C@H](C)O/N=C\[C@@H](C)[C@H](OCc1ccccc1)C(C)C 3.98 µM [inhibitor, partial curve], COc1cccc([C@H]2Oc3ccc(OC)cc3/C(=N\OC[C@@H](O)[C@@H]3O[C@@H]4OC(C)(C)O[C@@H]4[C@H]3O)[C@@H]2O)c1 3.16 µM [inhibitor, single point]

Activity change, negative = inhibition, inactive:
C/C=C/C1Oc2ccc(OC)cc2N2C(=O)C(C)C(OCOC)C12 (centres undefined) 14.6%, C=C(CO)[C@H]1Cc2c(ccc3c2O[C@H]2COc4cc(OC)c(OC)cc4[C@@H]2C3=O)O1 -2.34% [at 57.1 µM]
